From the supplement of paper PMC10369915 come the findings set out here.

Some of the results follow. Cut-off read from the data, not from the text of the source: active = 3.2 or more and inactive = the rest. The signal is at background level for most entries.

Common to all, as to assay: enrichment score (SH2-bound / input frequency) (ratio); bacterial display of known human phosphotyrosine sites (pTyr-Var adds point mutants) read by sequencing; higher = stronger binding; tyrosines were phosphorylated by kinases first
What all share (conditions): peptide library: Human pTyr

Assay [1] deals with SHP2 C-SH2 domain E139D.
Assay [2] deals with SHP2 C-SH2 domain wild-type.
Assay [3] addresses SHP2 N-SH2 domain L43F.
The target in assay [4] is SHP2 N-SH2 domain T42A.
In assay [5] the target is SHP2 N-SH2 domain T52S.
The target of assay [6] is SHP2 N-SH2 domain wild-type.
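Note: displayed peptides selected on beads carrying the immobilized SH2 domain, with library peptides lacking any tyrosine serving as negative controls.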

B1: CLD3_HUMAN_198 (peptide)
chain: YTATKVVYSAPRSTG
For the molecule B1, the enrichment score is inactive: 2.63 in assay [1]; active: 6.17 in assay [2]; inactive: 0.696 in assay [3]; inactive: 0.741 in assay [4]; inactive: 0.618 in assay [5]; inactive: 0.716 in assay [6].

B2: CRK_HUMAN_221 (peptide)
chain: GGPEPGPYAQPSVNT
B2: the enrichment score in assay [1] was inactive: 0.469; in assay [2] it was inactive: 0.42; in assay [3] it was inactive: 0.566; in assay [4], inactive: 0.543; in assay [5], inactive: 0.484; in assay [6], inactive: 0.659.

B3: ABL2_HUMAN_303_YA (peptide)
chain: GGQAGEVYVGVWKKA
As to B3, the enrichment score in assay [1] was inactive: 0.936; in assay [2] it was inactive: 0.573; in assay [3], inactive: 0.766; in assay [4], inactive: 0.665; in assay [5], inactive: 0.982; in assay [6] it was inactive: 0.64.

B4: ABL2_HUMAN_459 (peptide)
chain: TAPESLAYNTFSIKS
Take B4: the enrichment score is inactive: 0.683 in assay [1]; inactive: 0.689 in assay [2]; inactive: 0.698 in assay [3]; inactive: 0.578 in assay [4]; inactive: 0.637 in assay [5]; inactive: 0.769 in assay [6].

B5: CSF1R_HUMAN_561 (peptide)
chain: ESYEGNSYTFIDPTQ
For the molecule B5, the enrichment score in assay [1] was inactive: 0.64; in assay [2] it was inactive: 0.632; in assay [3], inactive: 0.507; in assay [4], inactive: 0.687; in assay [5], inactive: 0.577; in assay [6] it was inactive: 0.697.

B6: CHRNA7_HUMAN_442 (peptide)
chain: KILEEVRYIANRFRC
For B6, the enrichment score is inactive: 2.06 in assay [1]; inactive: 2.34 in assay [2]; inactive: 2.08 in assay [3]; inactive: 1.96 in assay [4]; inactive: 2.03 in assay [5]; inactive: 2.64 in assay [6].

B7: CHRNA7_HUMAN_386 (peptide)
chain: ASNGNLLYIGFRGLD
In the case of B7, the enrichment score in assay [1] is inactive: 1.56; in assay [2], inactive: 1.14; in assay [3], inactive: 1.22; in assay [4], inactive: 1.31; in assay [5] it was inactive: 1.39; in assay [6] it was inactive: 1.45.

B8: CTND1_HUMAN_291 (peptide)
chain: DDQRSMGYDDLDYGM
Take B8: the enrichment score in assay [1] is inactive: 0.936; in assay [2], inactive: 0.618; in assay [3], inactive: 0.742; in assay [4], inactive: 0.944; in assay [5], inactive: 0.736; in assay [6] it was inactive: 0.722.

B9: CSF1R_HUMAN_561_YA (peptide)
chain: ESAEGNSYTFIDPTQ
For the molecule B9, the enrichment score in assay [1] was inactive: 0.558; in assay [2], inactive: 0.602; in assay [3], inactive: 0.673; in assay [4] it was inactive: 0.516; in assay [5], inactive: 0.863; in assay [6], inactive: 0.514.

B10: CTND1_HUMAN_221 (peptide)
chain: SRHYEDGYPGGSDNY
For the molecule B10, the enrichment score in assay [1] was inactive: 0.68; in assay [2], inactive: 0.689; in assay [3], inactive: 0.622; in assay [4] it was inactive: 0.518; in assay [5], inactive: 0.569; in assay [6], inactive: 0.622.

B11: CTND1_HUMAN_221_YA (peptide)
chain: SRHAEDGYPGGSDNA
For B11, the enrichment score in assay [1] is inactive: 0.686; in assay [2] it was inactive: 0.613; in assay [3] it was inactive: 0.74; in assay [4], inactive: 0.591; in assay [5], inactive: 0.644; in assay [6], inactive: 0.734.

B12: CSKI1_HUMAN_253 (peptide)
chain: NAHVRNTYSQTALDI
Regarding B12, the enrichment score in assay [1] was inactive: 0.696; in assay [2] it was inactive: 0.578; in assay [3], inactive: 0.653; in assay [4], inactive: 0.626; in assay [5], inactive: 0.742; in assay [6], inactive: 0.634.

B13: CS025_HUMAN_63_YA (peptide)
chain: EAPGEQLYQQSRAAV
As for B13, the enrichment score in assay [1] is inactive: 0.567; in assay [2], inactive: 0.537; in assay [3], inactive: 0.585; in assay [4] it was inactive: 0.535; in assay [5] it was inactive: 0.529; in assay [6], inactive: 0.514.

B14: CSK22_HUMAN_13 (peptide)
chain: AGSRARVYAEVNSLR
As for B14, the enrichment score in assay [1] was inactive: 2.29; in assay [2], active: 5.43; in assay [3], inactive: 0.699; in assay [4] it was inactive: 0.901; in assay [5], inactive: 0.624; in assay [6], inactive: 0.69.

B15: CMGA_HUMAN_194 (peptide)
chain: ASLPSQKYPGPQAEG
As for B15, the enrichment score in assay [1] was inactive: 0.722; in assay [2], inactive: 0.687; in assay [3], inactive: 0.561; in assay [4] it was inactive: 0.653; in assay [5] it was inactive: 0.729; in assay [6] it was inactive: 0.793.

B16: CSF1R_HUMAN_923 (peptide)
chain: EDRRERDYTNLPSSS
Regarding B16, the enrichment score in assay [1] was inactive: 0.736; in assay [2], inactive: 0.672; in assay [3], inactive: 0.67; in assay [4], inactive: 0.62; in assay [5], inactive: 0.602; in assay [6], inactive: 0.666.

B17: CTND1_HUMAN_228 (peptide)
chain: YPGGSDNYGSLSRVT
Turning to B17, the enrichment score is inactive: 0.653 in assay [1]; inactive: 0.527 in assay [2]; inactive: 0.592 in assay [3]; inactive: 0.595 in assay [4]; inactive: 0.74 in assay [5]; inactive: 0.695 in assay [6].

B18: CLH2_HUMAN_899_YA (peptide)
chain: CFLRENAYADSSVVG
Turning to B18, the enrichment score in assay [1] is inactive: 1.91; in assay [2], inactive: 1.05; in assay [3] it was inactive: 1.01; in assay [4] it was inactive: 1.15; in assay [5] it was inactive: 1.28; in assay [6], inactive: 1.8.
